These are yes or no findings as the source states them, for the method shown. Binding seen in cells or lysates may run through a third protein. Some entries that bind do so weakly or less than the wild type. Sequences can lack the tags named with a protein.
B1: MYC-tagged RFX1 (protein, UniProt P22670 1-979)
chain: MATQAYTELQAAPPPSQPPQAPPQAQPQPPPPPPPAAPQPPQPPTAAATPQPQYVTELQSPQPQAQPPGGQKQYVTELPAVPAPSQPTGAPTPSPAPQQYIVVTVSEGAMRASETVSEASPGSTASQTGVPTQVVQQVQGTQQRLLVQTSVQAKPGHVSPLQLTNIQVPQQALPTQRLVVQSAAPGSKGGQVSLTVHGTQQVHSPPEQSPVQANSSSSKTAGAPTGTVPQQLQVHGVQQSVPVTQERSVVQATPQAPKPGPVQPLTVQGLQPVHVAQEVQQLQQVPVPHVYSSQVQYVEGGDASYTASAIRSSTYSYPETPLYTQTASTSYYEAAGTATQVSTPATSQAVASSGSMPMYVSGSQVVASSTSTGAGASNSSGGGGSGGGGGGGGGGGGGGSGSTGGGGSGAGTYVIQGGYMLGSASQSYSHTTRASPATVQWLLDNYETAEGVSLPRSTLYCHYLLHCQEQKLEPVNAASFGKLIRSVFMGLRTRRLGTRGNSKYHYYGLRIKASSPLLRLMEDQQHMAMRGQPFSQKQRLKPIQKMEGMTNGVAVGQQPSTGLSDISAQVQQYQQFLDASRSLPDFTELDLQGKVLPEGVGPGDIKAFQVLYREHCEAIVDVMVNLQFTLVETLWKTFWRYNLSQPSEAPPLAVHDEAEKRLPKAILVLLSKFEPVLQWTKHCDNVLYQGLVEILIPDVLRPIPSALTQAIRNFAKSLESWLTHAMVNIPEEMLRVKVAAAGAFAQTLRRYTSLNHLAQAARAVLQNTAQINQMLSDLNRVDFANVQEQASWVCRCEDRVVQRLEQDFKVTLQQQNSLEQWAAWLDGVVSQVLKPYQGSAGFPKAAKLFLLKWSFYSSMVIRDLTLRSAASFGSFHLIRLLYDEYMYYLIEHRVAQAKGETPIAVMGEFANLATSLNPLDPDKDEEEEEEEESEDELPQDISLAAGGESPALGPETLEPPAKLARTDARGLFVQALPSS
B2: MYC-tagged NFATC1 (protein, UniProt O95644 1-943)
chain: MPSTSFPVPSKFPLGPAAAVFGRGETLGPAPRAGGTMKSAEEEHYGYASSNVSPALPLPTAHSTLPAPCHNLQTSTPGIIPPADHPSGYGAALDGGPAGYFLSSGHTRPDGAPALESPRIEITSCLGLYHNNNQFFHDVEVEDVLPSSKRSPSTATLSLPSLEAYRDPSCLSPASSLSSRSCNSEASSYESNYSYPYASPQTSPWQSPCVSPKTTDPEEGFPRGLGACTLLGSPRHSPSTSPRASVTEESWLGARSSRPASPCNKRKYSLNGRQPPYSPHHSPTPSPHGSPRVSVTDDSWLGNTTQYTSSAIVAAINALTTDSSLDLGDGVPVKSRKTTLEQPPSVALKVEPVGEDLGSPPPPADFAPEDYSSFQHIRKGGFCDQYLAVPQHPYQWAKPKPLSPTSYMSPTLPALDWQLPSHSGPYELRIEVQPKSHHRAHYETEGSRGAVKASAGGHPIVQLHGYLENEPLMLQLFIGTADDRLLRPHAFYQVHRITGKTVSTTSHEAILSNTKVLEIPLLPENSMRAVIDCAGILKLRNSDIELRKGETDIGRKNTRVRLVFRVHVPQPSGRTLSLQVASNPIECSQRSAQELPLVEKQSTDSYPVVGGKKMVLSGHNFLQDSKVIFVEKAPDGHHVWEMEAKTDRDLCKPNSLVVEIPPFRNQRITSPVHVSFYVCNGKRKRSQYQRFTYLPANVPIIKTEPTDDYEPAPTCGPVSQGLSPLPRPYYSQQLAMPPDPSSCLVAGFPPCPQRSTLMPAAPGVSPKLHDLSPAAYTKGVASPGHCHLGLPQPAGEAPAVQDVPRPVATHPGSPGQPPPALLPQQVSAPPSSSCPPGLEHSLCPSSPSPPLPPATQEPTCLQPCSPACPPATGRPQHLPSTVRRDESPTAGPRLLPEVHEDGSPNLAPIPVTVKREPEELDQLYLDDVNEIIRNDLSSTSTHS
B3: MYC-tagged ATF1 (protein, UniProt P18846 1-271)
chain: MEDSHKSTTSETAPQPGSAVQGAHISHIAQQVSSLSESEESQDSSDSIGSSQKAHGILARRPSYRKILKDLSSEDTRGRKGDGENSGVSAAVTSMSVPTPIYQTSSGQYIAIAPNGALQLASPGTDGVQGLQTLTMTNSGSTQQGTTILQYAQTSDGQQILVPSNQVVVQTASGDMQTYQIRTTPSATSLPQTVVMTSPVTLTSQTTKTDDPQLKREIRLMKNREAARECRRKKKEYVKCLENRVAVLENQNKTLIEELKTLKDLYSNKSV

Sequences of proteins named here, by UniProt entry; tags and fusion partners are left off. A change or cut given only in a name is not applied to a line headed by its entry. A line that says so, or that is headed by a name, gives the form on record, which may keep a tag or linker.
UniProt P05412: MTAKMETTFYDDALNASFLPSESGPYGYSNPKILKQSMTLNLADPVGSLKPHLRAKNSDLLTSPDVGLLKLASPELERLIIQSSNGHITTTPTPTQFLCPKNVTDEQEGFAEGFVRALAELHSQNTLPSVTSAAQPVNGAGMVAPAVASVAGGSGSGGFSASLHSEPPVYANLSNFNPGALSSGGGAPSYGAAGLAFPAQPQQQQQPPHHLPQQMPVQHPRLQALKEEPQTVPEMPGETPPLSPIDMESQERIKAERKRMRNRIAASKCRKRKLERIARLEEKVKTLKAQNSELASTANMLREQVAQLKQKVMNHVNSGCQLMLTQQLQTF
UniProt P16220: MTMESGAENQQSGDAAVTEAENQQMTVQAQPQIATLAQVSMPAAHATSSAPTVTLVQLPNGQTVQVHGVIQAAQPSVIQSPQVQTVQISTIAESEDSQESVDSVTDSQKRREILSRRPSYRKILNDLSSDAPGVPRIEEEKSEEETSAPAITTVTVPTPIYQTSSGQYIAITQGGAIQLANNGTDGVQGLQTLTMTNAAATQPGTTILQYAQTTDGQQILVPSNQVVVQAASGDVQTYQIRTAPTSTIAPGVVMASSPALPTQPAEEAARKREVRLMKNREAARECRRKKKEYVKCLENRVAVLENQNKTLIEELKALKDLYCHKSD
UniProt Q9Y297: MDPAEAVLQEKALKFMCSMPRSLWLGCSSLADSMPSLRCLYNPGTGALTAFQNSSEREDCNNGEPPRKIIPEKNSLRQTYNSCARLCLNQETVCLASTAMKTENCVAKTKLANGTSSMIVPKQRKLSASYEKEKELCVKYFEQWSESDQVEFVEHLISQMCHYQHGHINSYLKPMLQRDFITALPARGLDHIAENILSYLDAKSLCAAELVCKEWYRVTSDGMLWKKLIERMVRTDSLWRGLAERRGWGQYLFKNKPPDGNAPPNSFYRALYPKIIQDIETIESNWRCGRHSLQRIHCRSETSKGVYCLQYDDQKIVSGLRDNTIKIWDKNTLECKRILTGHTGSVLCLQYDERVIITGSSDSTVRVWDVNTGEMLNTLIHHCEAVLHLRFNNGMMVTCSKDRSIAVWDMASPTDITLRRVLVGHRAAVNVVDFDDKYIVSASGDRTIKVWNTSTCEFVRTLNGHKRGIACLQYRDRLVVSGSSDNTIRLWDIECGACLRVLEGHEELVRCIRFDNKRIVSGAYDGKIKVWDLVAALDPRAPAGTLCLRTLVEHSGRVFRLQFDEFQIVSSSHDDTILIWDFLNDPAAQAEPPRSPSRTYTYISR
MYC-tagged βTRCP (R474A) (Q9Y297-2, form named): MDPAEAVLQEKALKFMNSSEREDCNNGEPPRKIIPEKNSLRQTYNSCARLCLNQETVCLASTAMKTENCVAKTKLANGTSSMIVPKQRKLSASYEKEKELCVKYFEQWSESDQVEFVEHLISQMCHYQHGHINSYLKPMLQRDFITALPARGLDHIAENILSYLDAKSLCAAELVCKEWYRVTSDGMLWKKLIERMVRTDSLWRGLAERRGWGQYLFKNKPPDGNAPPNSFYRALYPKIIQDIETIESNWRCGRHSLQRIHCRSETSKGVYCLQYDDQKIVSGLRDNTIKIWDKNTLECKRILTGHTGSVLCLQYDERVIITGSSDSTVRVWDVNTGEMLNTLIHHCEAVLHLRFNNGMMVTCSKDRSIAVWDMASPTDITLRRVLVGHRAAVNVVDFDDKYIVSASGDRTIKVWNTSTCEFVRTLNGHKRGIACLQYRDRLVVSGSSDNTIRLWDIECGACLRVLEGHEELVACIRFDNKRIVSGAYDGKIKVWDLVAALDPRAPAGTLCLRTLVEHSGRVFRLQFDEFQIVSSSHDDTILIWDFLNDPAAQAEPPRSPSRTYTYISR
UniProt Q9UKB1: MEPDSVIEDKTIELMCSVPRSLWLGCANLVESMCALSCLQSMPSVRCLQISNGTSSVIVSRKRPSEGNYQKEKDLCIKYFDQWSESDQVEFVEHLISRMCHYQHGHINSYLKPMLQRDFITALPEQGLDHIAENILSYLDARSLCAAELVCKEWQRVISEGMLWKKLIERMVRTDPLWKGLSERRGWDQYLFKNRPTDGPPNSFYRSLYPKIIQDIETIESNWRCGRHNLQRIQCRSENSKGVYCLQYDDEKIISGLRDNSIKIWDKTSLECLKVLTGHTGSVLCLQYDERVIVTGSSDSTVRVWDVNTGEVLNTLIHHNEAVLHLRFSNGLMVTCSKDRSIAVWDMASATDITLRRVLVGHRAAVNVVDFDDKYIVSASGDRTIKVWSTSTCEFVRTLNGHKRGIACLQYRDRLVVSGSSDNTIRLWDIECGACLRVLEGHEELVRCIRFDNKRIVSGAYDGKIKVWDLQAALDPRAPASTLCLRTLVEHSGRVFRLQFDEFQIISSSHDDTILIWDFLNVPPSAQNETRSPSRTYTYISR

Legend:
SFB-tagged FOXN2 (human) = biological target: T1, SFB-tagged FOXN2 (human) (UniProt P32314); assay: pull-down; 293T cells co-transfected with SFB-tagged and MYC-tagged constructs; S-protein beads, immunoblot; called co-IP in the text
T1 sequence: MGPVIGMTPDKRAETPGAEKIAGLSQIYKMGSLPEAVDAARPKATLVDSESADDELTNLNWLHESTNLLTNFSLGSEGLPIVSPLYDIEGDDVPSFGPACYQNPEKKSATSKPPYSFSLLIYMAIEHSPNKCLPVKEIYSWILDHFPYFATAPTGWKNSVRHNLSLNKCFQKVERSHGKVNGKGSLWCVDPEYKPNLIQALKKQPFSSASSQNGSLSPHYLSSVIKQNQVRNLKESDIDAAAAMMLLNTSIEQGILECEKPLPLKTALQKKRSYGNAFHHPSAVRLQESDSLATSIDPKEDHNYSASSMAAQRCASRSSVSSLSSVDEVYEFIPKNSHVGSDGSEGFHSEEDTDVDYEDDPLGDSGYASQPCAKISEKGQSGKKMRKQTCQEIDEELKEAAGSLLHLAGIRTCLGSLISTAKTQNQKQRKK

SFB-tagged ATF2 [1] = biological target: T2, SFB-tagged ATF2 (UniProt P15336); assay: pull-down; 293T cells co-transfected with MYC-tagged and SFB-tagged constructs; S-protein beads, immunoblot; chromatin fraction
T2 sequence: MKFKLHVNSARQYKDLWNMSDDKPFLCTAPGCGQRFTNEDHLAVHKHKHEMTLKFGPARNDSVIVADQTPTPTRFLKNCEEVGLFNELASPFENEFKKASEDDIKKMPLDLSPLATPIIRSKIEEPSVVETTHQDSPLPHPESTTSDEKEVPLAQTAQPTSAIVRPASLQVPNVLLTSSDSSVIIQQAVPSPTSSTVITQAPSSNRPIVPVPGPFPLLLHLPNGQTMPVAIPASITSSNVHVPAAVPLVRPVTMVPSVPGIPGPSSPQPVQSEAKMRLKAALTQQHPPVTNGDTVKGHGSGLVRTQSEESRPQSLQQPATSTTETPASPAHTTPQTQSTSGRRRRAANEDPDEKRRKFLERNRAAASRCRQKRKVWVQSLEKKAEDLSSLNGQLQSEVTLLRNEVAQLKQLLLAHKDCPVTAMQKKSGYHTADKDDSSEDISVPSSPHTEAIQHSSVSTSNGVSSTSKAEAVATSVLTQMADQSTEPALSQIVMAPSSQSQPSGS

SFB-tagged JUN (human) [2] = biological target: SFB-tagged JUN (human) (UniProt P05412); assay: as above
SFB-tagged ATF1 = biological target: T3, SFB-tagged ATF1 (UniProt P18846); assay: as above
T3 sequence: B3 chain

SFB-tagged CREB1 (human) [3] = biological target: SFB-tagged CREB1 (human) (UniProt P16220); assay: as above
SFB-tagged ATF2 [4] = biological target: T2, SFB-tagged ATF2; assay: pull-down; 293T cells co-transfected with MYC-tagged and SFB-tagged constructs; S-protein beads, immunoblot; soluble fraction
SFB-tagged JUN (human) [5] = biological target: SFB-tagged JUN (human) (UniProt P05412); assay: as above
SFB-tagged CREB1 (human) [6] = biological target: SFB-tagged CREB1 (human) (UniProt P16220); assay: as above

Molecule | binding (SFB-tagged FOXN2 (human)) | binding (SFB-tagged ATF2 [1]) | binding (SFB-tagged JUN (human) [2]) | binding (SFB-tagged CREB1 (human) [3]) | further results
MYC-tagged βTRCP (R474A) (from UniProt Q9Y297-2 1-569) | no binding | – | – | – | –
MYC-tagged βTRCP (from UniProt Q9Y297 1-605) | binds | – | – | – | –
MYC-tagged βTRCP2 (from UniProt Q9UKB1 1-542) | binds | – | – | – | –
B1 | binds | – | – | – | –
B2 | – | binds | binds | binds | binding (SFB-tagged ATF1): binds
B3 | – | binds | binds | binds | binding (SFB-tagged ATF2 [4]): binds; binding (SFB-tagged JUN (human) [5]): binds; binding (SFB-tagged CREB1 (human) [6]): binds

— publication PMC4332150
